Measurements reported in paper PMC4336329 (PLoS ONE, 2015).
Among all 310,000 compounds or so, about 14,000 (4.5%) showed an effect of 50% or more. The effect is printed as a negative number. The list shows a part of the results.

molecular target: human ether-à-go-go-related gene (hERG) potassium channel (human, UniProt Q12809); assay: primary screen, population patch clamp on CHO cells stably expressing hERG
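Further: peak tail current of the secondary pulse compared with the same well before compound.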

Chain of human ether-à-go-go-related gene (hERG) potassium channel (Q12809 whole entry, looked up): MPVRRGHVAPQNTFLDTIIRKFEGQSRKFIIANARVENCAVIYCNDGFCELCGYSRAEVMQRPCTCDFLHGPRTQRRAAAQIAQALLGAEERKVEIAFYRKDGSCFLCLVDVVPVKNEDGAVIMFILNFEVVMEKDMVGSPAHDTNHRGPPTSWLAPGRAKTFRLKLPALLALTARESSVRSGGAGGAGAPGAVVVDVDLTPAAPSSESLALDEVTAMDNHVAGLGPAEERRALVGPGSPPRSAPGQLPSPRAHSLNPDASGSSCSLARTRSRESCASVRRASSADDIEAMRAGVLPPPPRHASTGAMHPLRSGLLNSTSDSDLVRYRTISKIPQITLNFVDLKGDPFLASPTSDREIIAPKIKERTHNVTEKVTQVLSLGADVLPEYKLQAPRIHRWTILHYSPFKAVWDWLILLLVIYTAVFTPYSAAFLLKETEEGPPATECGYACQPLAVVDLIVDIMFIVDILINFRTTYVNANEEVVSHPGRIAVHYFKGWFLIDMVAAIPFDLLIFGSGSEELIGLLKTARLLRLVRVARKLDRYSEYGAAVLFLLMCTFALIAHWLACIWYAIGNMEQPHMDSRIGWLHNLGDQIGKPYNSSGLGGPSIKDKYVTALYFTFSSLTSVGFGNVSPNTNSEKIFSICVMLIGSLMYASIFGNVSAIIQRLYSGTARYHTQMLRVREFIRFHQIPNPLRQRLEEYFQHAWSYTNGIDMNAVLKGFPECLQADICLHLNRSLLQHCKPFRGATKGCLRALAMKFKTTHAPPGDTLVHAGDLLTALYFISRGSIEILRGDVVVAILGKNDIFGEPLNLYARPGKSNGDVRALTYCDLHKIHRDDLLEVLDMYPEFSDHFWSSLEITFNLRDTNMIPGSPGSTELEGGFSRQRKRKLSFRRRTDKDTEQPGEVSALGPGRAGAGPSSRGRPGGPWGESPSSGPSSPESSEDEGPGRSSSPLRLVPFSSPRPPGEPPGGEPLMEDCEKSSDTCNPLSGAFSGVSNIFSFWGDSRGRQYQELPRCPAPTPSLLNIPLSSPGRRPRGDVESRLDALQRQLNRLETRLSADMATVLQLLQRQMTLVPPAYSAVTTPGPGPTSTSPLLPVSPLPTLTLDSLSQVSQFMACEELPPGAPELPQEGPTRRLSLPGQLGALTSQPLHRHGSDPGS

| Compound | hERG current change (%, negative = inhibition) at 10uM [%] |
| --- | --- |
| CCCCn1c(N)c(N(CCOC)C(=O)c2cc(CC)c(C)s2)c(=O)[nH]c1=O | 4.56 |
| COc1ccc(-c2coc3cc4oc(=O)c5ccccc5c4cc23)cc1F | 3.58 |
| CN(C)c1nc(N(C)C)n(C(=O)c2cccs2)n1 | 6.55 |
| CCOC(=O)Cc1c(C)nc2c(-c3ccccc3)cnn2c1C | -13.8 |
| O=C(Cn1cncn1)c1ccc(F)cc1F | 24.7 |
| O=S(=O)(c1ccc(N2CCN(S(=O)(=O)c3ccc4c(c3)OCCO4)CC2)nc1)N1CCCC1 | -3.29 |
| Cc1cccc(NC(=S)N(CCN(C)C)Cc2cc3cc(C)cc(C)c3[nH]c2=O)c1 | -49.7 |
| CC(=O)c1ccc(N2CCN(S(=O)(=O)c3ccc4c(c3)CC(C)N4C(C)=O)CC2)cc1 (stereo not drawn) | -22.3 |
| CC(C)=CCC/C(C)=C/CN(CC(C)O)CC(C)O (stereo not drawn) | 5.47 |
| Cc1oncc1-c1csc(-c2ccccc2)n1 | 11.1 |
| CC(=O)c1ccc(OC(=O)c2cccs2)cc1 | 15.9 |
| Fc1ccc(-c2nnc(-c3ccc(F)cc3)o2)cc1 | 11.5 |
| NC(=O)c1nc(C(=O)N2CCCCC2)c2ccccc2n1 | 17.1 |
| COC(=O)c1ccccc1NS(=O)(=O)c1ccc(Cl)nc1 | 9.53 |
| Cc1cc(=O)oc2c(CN3CCN(CCO)CC3)c(O)ccc12 | 8.71 |
| C/C(=C\C(=O)c1ccccc1)Nc1cccc(O)c1 | 10.8 |
| Cc1cccn2c(=O)c(/C=C(\C#N)S(=O)(=O)c3ccccc3)c(Oc3ccc(Cl)cc3)nc12 | 8.86 |
| Cc1ccc(S(=O)(=O)N2CCCCC2)cc1NC(=O)CNC(C)c1ccc(Cl)c(Cl)c1 (stereo not drawn) | -4.28 |
| CC(C)(C)NC(=O)NC(=O)COC(=O)C1=COCCO1 | -4.82 |

| Compound | hERG current change (%, negative = inhibition) at 10uM [%] |
| --- | --- |
| COc1ccc(CNC(=O)C2CCCN(S(=O)(=O)c3cc(C)ccc3OC)C2)cc1 (stereo not drawn) | 7.26 |
| CC(O)[C@H]1CNC(=S)N1CCc1cccc(F)c1 (stereo partly drawn) | 12.9 |
| Cc1nnc(SC(C)C(=O)Nc2c(C)n(C)n(-c3ccccc3)c2=O)n1N (stereo not drawn) | 0.329 |
| COc1cc2cc(C(N)=O)c(N)nc2cc1OC | -11 |
| Cc1sc2nc(SC(C)C)nc(N)c2c1C | -2.58 |
| Cc1ccc(C(=O)N2CCOCC2)cc1S(=O)(=O)N1CCCCC1 | 11.1 |
| CC(=O)c1ccc(N2CCN(S(=O)(=O)c3cc(-c4cc(C)no4)ccc3C(C)C)CC2)cc1 | 5.74 |
| CCOC(=O)C1CCCN(C(=O)c2cn(C)c3ccc(S(=O)(=O)N4CCCC4)cc3c2=O)C1 (stereo not drawn) | 8.84 |
| CC[n+]1c(C)n(-c2ccccc2)c2ccc(NC(C)=O)cc21.[I-] | 11 |
| CC1CC(C)CN(S(=O)(=O)c2ccc(C(=O)NCCCn3ccnc3)cc2)C1 (stereo not drawn) | -17.6 |
| COc1ccc(-c2nc(CS(=O)CC(=O)NC3CCCCC3)c(C)o2)cc1 (stereo not drawn) | -6.79 |
| Fc1ccc(NC(=S)NN2CCOCC2)cc1Cl | 17.8 |
| Cc1ccccc1N1CCN(C2CCCN(C(=O)c3snnc3C)C2)CC1 (stereo not drawn) | 5.72 |
| O=C(NC1CCCCCCC1)NC1CCCCC1 | 3.77 |
| O=C(CN1C(=O)c2ccccc2C1=O)Oc1ccc(Cl)cc1 | 17.8 |
| O=C(Nc1ccc([N+](=O)[O-])cc1)Nc1ccc(OC(F)F)c(Cl)c1 | 19.6 |
| O=C(CCNC(=O)c1ccccc1Cl)Nc1cc(S(=O)(=O)N2CCOCC2)ccc1N1CCCC1 | -8.58 |
| COc1cc(/C=C2/C(=N)N3N=C(CC(=O)N4CCOCC4)SC3=NC2=O)ccc1OCc1ccccc1F | 17.1 |
| Cc1ccc(S(=O)(=O)N2CCN(C(=O)CN3C(=O)c4ccc([N+](=O)[O-])cc4C3=O)CC2)c(C)c1 | -7.44 |

| Compound | hERG current change (%, negative = inhibition) at 10uM [%] |
| --- | --- |
| CCc1nnc(NS(=O)(=O)c2ccc(N=Cc3c(C)[nH]n(-c4ccc(Cl)cc4)c3=O)cc2)s1 | 17.7 |
| Cc1cccc(NC(=O)CSc2cccc3cccnc23)c1 | -4.84 |
| COc1cc(CN(C)c2ncnc3sccc23)ccc1OC(F)F | -27.8 |
| O=C(NCCCO)NC(=S)c1cccc2ccccc12 | 0.975 |
| CC(NC(=O)c1cccc2ccccc12)c1ccc2c(c1)CCCC2 (stereo not drawn) | 3.57 |
| O=C(O)CCn1c(C2CCCCC2)nc2ccccc21 | -16.3 |
| COc1ccc(S(=O)(=O)N2CCC(C(=O)N3CCOCC3)CC2)cc1OC | 8.8 |
| Cc1nn(-c2ccccc2)c2c1C(c1ccc([N+](=O)[O-])cc1)C(C#N)=C(N)O2 (stereo not drawn) | 15.4 |
| CCOC(=O)c1cc(C#N)c(SCC(=O)OC)[nH]c1=O | 6.6 |
| O=C(c1ccc([N+](=O)[O-])o1)N1CCN(c2nc3c(Cl)cccc3s2)CC1 | -10.3 |
| Cc1ccc(C2C3=C(NCCN=C3c3ccccc3)C(=O)N2c2ccccc2)cc1 (stereo not drawn) | -31.7 |
| CC(=O)c1cccc(NC(=S)NC(=O)CC(C)(C)C)c1 | -14.6 |
| O=C(NCCC(=O)N1CCN(c2ccccc2O)CC1)c1ccc(Cl)cc1 | -15.7 |
| CCCCC(=O)Nc1ccc(C(=O)NNC(=S)NC(=O)c2cccs2)cc1 | 3.94 |
| Cc1cc(C)nc(NC(=O)c2cccs2)c1 | 15.3 |
| Cn1c(N)c(C(=O)COc2ccc(C#N)cc2)c(=O)n(C)c1=O | -4.83 |
| Cc1ccc(NC(=O)C2CCN(S(=O)(=O)c3cccnc3)CC2)cc1C | -16.2 |
| CC(NS(=O)(=O)c1ccc(OCC(=O)NCc2ccccn2)cc1)c1ccccc1 (stereo not drawn) | 8.71 |
| Cc1ccc(S(=O)(=O)Cc2ccc(C(=O)NCCc3ccccc3)o2)cc1 | -27.7 |
